This note sets out measurements from the RNAGym collection of RNA variant scans (doi:10.1093/nar/gkz1192).

B1: CPEB3 Ribozyme (parent)
chain: UAACAGGGGGCCACAGCAGAAGCGUUCACGUCGCAGCCCCUGUCAGAUUCUGGUGAAUCUGCGAAUUCUGCUGUAUAUCUC

Read counts are not given, so values of variants with three or more changes are uncertain.

This data set covers variants of B1. Briefly: self-cleavage, relative activity (ratio to wild type); higher = more cleavage; in vitro, sequencing. In short, it runs like this:
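For each CPEB3 ribozyme variant, relative activity is its cleaved/total read fraction divided by the unmutated ribozyme's. Barcoded error-prone PCR libraries were transcribed by T7 RNA polymerase (5 hours, 37°C) and held in DNase I for 15 min before an EDTA stop, with cleavage occurring throughout. Template-switching reverse transcription and Illumina sequencing were used to read the RNAs. A 5-read minimum applied, and results are the mean of three batches.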
For the variant U1C G10U C40U U74C, the self-cleavage stood at 0.24.
As for U1C C14U A28C G36C U43C U58C, the self-cleavage was found to be 0.05.
Under U1C C32U A45C A57G A75G stands 0.19; under U1C G22A C27G A57G G70A U78A, 0.04.
Under U1C G52U U67A U72C U74C U76A stands 0.4; under U1C G6A C39U, 0.53; under U1C U25C A47G, 0.19.
Under U1C U58C A75G U80C stands 0.15; under U1C G10A U72C, 0.09; under U1G A18G A20U A45G U51C G63A U74A, 0.59.
With U1C U51C U69C, the self-cleavage turned out to be 0.65.
Regarding U1C U51C U69G, the self-cleavage was 0.61.
Under U1C G16A U25A A28U U51A U54A stands 0.05; under U1C G10A A28G U69C U72C, 0.05; under U1C U26C A47U U80C, 0.39.
For the variant U1C C27A A28G C34A G36A, the self-cleavage was 0.06.
Under U1C U43C A75U stands 0.28.
For U1C G8A A21G U60A U67C U78C the value was 0.11; for U1C U54C U67C U72A, 0.18; for U1C G6A C39U U48C, 0.26.
Turning to U1C C32U U41A, the self-cleavage came out at 0.26.
As to U1C C38A U54C U60C U80C, the self-cleavage turned out to be 0.24.
As to U1C G16A U31A C38A C39U, the self-cleavage is 0.04.
Under U1C C11G A20G stands 0.49; under U1C G6A C34U U49C U72A, 0.06.
For U1C U41C U54C A64U U69C the value was 0.3; for U1C C37U A65G C71A A77G, 0.09.
With U1C C17G A20G U41C, the self-cleavage was found to be 0.46.
Under U1C U41C U60C A64G stands 0.11; under U1C G7A A77G, 0.23; under U1C G8A U54C, 0.06.
For the variant U1C G8C G9A U41A, the self-cleavage was 0.06.
Consider U1C C12U C44U U60A, for which the self-cleavage stood at 0.11.
For U1C G10A C44G A56G G63A the value was 0.16; for U1C U66C U74C, 0.51; for U1C G9U C39U U41A U51A U60A, 0.15.
Consider U1C U31C U41C, for which the self-cleavage was found to be 0.66.
For U1C U41A U48C A56G the value was 0.07; for U1C C11A U25A U66C, 0.19; for U1C U26C C37A U69C U72C U76A, 0.09.
For U1C U49C A57G U58C, the self-cleavage is 0.36.
For U1C U60A G63A the value was 0.2; for U1C G24A A28G A57U, 0.06.
As for U1C C37A A45G U60A, the self-cleavage came to 0.23.
For U1C U31A U48C, the self-cleavage amounted to 0.19.
As to U1C G6A A21U C71U, the self-cleavage was 0.05.
Under U1C U41A U60C U74A A75G stands 0.06; under U1C C4U A15G U31C A47U U49C, 0.58.
In the case of U1C G10A A18U U41C A64G U80A, the self-cleavage was 0.03.
For U1C G22C U43A U49C U51C U74C the value was 0.07.
As for U1C G10C U31A A45U U66A U74A U76A, the self-cleavage turned out to be 0.07.
Under U1C C34G U69A U76C stands 0.06.
As for U1C U25C U26A U54C U69A, the self-cleavage worked out at 0.04.
With U1C G10A A15C U25G A56C U78C, the self-cleavage is 0.05.
On to U1C U25A A75U U78C, for which the self-cleavage was found to be 0.09.
Under U1C C27U U43A stands 0.29; under U1C C17U A18G C34U U80A, 0.09.
Consider U1C C11U A47G A56G U67C, for which the self-cleavage was 0.12.
Under U1C U26C A35G stands 1.08.
For the variant U1C U43C A45G G73A A75G, the self-cleavage is 0.42.
For U1C C11U U80A, the self-cleavage came out at 0.45.
Under U1C G10A A13G U54C U67C U80C stands 0.07; under U1C G19A C23U U49A U80A, 0.05.
In the case of U1G A3G A45G U51C A57G U72A, the self-cleavage was determined as 0.5.
Consider U1C U25C U67C, for which the self-cleavage amounted to 0.05.
Under U1C G6C U31C C32A A35G A65G stands 0.05.
For the variant U1C U26C A45G C50A, the self-cleavage was 0.11.
With U1C U25A U26A U41C U78C, the self-cleavage was determined as 0.09.
Turning to U1C U26A U31C U60C U66C, the self-cleavage turned out to be 0.13.
Under U1G A3U U58C stands 0.63; under U1C C12U U60A A77G, 0.25.
With U1C U51A U54C A57U U66C U74C, the self-cleavage amounted to 0.24.
As for U1C G8A A20G A57G U69C, the self-cleavage was 0.09.
Under U1C C4U U25C C29U A56U stands 0.09; under U1C U25A U48C A64G U69C, 0.13; under U1C U43C U51C U66C U69A, 0.24.
For U1C C17G U26A U41C the value was 0.07.
For U1C U48C U74A the value was 0.85; for U1C G24C U60C, 0.17.
Consider U1G A21G U26C, for which the self-cleavage came to 0.48.
On to U1C U26C U41C A56G, for which the self-cleavage came to 0.23.
Under U1C C14U A15G A28G C32U U72C stands 0.11; under U1C U49C U60A, 0.12.
U1C C4G A21G U25C A45G U51C U69A: the self-cleavage came out at 0.19.
